Measurements as given in PubChem BioAssay AID1745853 (National Center for Advancing Translational Sciences (NCATS), 2022).
The list shows a part of the results. The main result of the screen is listed elsewhere. These columns were measured beside it and carry no call.

Assays:
Test in all cases: Primary Screen for Target Class Profiling of Small Molecule Inhibitors of Methyltransferases
[1] = biological target: Guanidinoacetate N-methyltransferase (Homo sapiens) (UniProt Q14353); conditions: purified enzyme, MTase-Glo SAH luminescence; measured here: GAMT inhibition; at 40 µM; stronger effect = lower value
Procedure, shortened: (§1)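 Each enzyme was assayed with SAM and its substrate. SAH formation detected by MTase-Glo luminescence; single-point 40 uM screen[…].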

[2] = biological target: Nicotinamide N-methyltransferase (Homo sapiens) (UniProt P40261); conditions: purified enzyme, MTase-Glo SAH luminescence; measured here: NNMT inhibition; at 40 µM; stronger effect = lower value
Procedure, shortened: as §1

[3] = biological target: Phenylethanolamine N-methyltransferase (Homo sapiens) (UniProt P11086); conditions: purified enzyme, MTase-Glo SAH luminescence; measured here: PNMT inhibition; at 40 µM; stronger effect = lower value
Procedure, shortened: as §1

[4] = biological target: Glycine N-methyltransferase (Homo sapiens) (UniProt Q14749); conditions: purified enzyme, MTase-Glo SAH luminescence; measured here: GNMT inhibition; at 40 µM; stronger effect = lower value
Procedure, shortened: as §1

[5] = biological target: Histamine N-methyltransferase (Homo sapiens) (UniProt P50135); conditions: purified enzyme, MTase-Glo SAH luminescence; measured here: HNMT inhibition; at 40 µM; stronger effect = lower value
Procedure, shortened: as §1
% is set by controls: 0 for no effect and ±100 for the full control effect.

Structure (SMILES)	activity change, negative = inhibition [1] [%]	activity change, negative = inhibition [2] [%]	activity change, negative = inhibition [3] [%]	activity change, negative = inhibition [4] [%]	activity change, negative = inhibition [5] [%]
CC(=O)Oc1cc2c(s1)CCN(C(C(=O)C1CC1)c1ccccc1F)C2 (configuration not stated)	2.8	-13.5	-2.32		
CS(=O)(=O)N(Cc1ccco1)CC(O)Cn1c2ccccc2c2ccccc21 (configuration not stated)	7.18	-9.53	3.97	2.24	10.6
CC(C)C1NC(=O)C(CC2(O)c3ccccc3N3C(=O)C(Cc4ccccc4)NC32)NC1=O (configuration not stated)	7.14	-6.86	4.36	4.42	11.2
CC(C)NC(=O)c1ccc(C#Cc2ccncc2)cn1	0.251	-14.7	0.84	-7.44	7.03
O=C(CN1CC2CC(C1)[C@H]1CCCC(=O)N1C2)N1CCSCC1 (some centres not stated)	-5.74	-6.8	-3.98	-3.05	-0.784
CC(C(=O)N1CCN(c2ccccc2)CC1)n1ccc2cc(S(=O)(=O)N3CCCC3)ccc21 (configuration not stated)	0.541	7.36	2.87	7.31	4.02
O=C1Nc2ccccc2/C1=C/c1cc(O)ccc1O	-14.1	-35	-5.9		
CCCC(=O)N(c1ccc(OC)cc1)S(=O)(=O)c1ccc2c(c1)n(C)c(=O)n2C	3.4	-0.387	-0.142	-3.72	-0.711
CC(C)CCn1c(=O)c2ccc(C(=O)NC(C)C)cc2n2c(=O)n(CC(=O)c3ccc(Cl)cc3)nc12	10.7	-5.79	3.15	3.74	3.47
COc1cc(OC)c(NC(=O)Cn2c(=O)oc3cc(S(=O)(=O)N4CCCC4)ccc32)cc1Cl	2.02	9.05	7.83	15.9	13.9
CC(=O)N1CCC(N2CCOC[C@H]2c2ncc(-c3ccncc3)[nH]2)CC1	-8.55	-5.48	-9.1	-5.8	-2.41
CC(C)C(=O)Nc1ccc([N+](=O)[O-])c(C(F)(F)F)c1	4.59	-8.19	-8.9	-9.02	-0.294
CC1CC(=O)[C@]2(O)C(C(=O)OCCc3ccc(O)c(O)c3)=CO[C@@H](O[C@@H]3O[C@H](CO)[C@@H](O)[C@H](O)[C@H]3O)[C@H]12 (some centres not stated)	-0.794	-12.8	4.68	0	5.28
CCc1cc2c(cc3n2CC(C)(C(=O)NC2CCCCCC2)N(CCCc2ccccc2)C3=O)s1 (configuration not stated)	6.98	7.33	-0.161	4.89	8.71
Cc1cc(C[C@@H]2COC[C@@H]2NC(=O)C2CCN(C(=O)C3CC3)CC2)on1	-8.55	-11.8	4.08	-6.92	-3.05
C=CC(C)(C)C12CC3C(=O)N4C(CC5(C(C)(C)C=C)c6ccccc6NC45)C(=O)N3C1Nc1ccccc12 (configuration not stated)	-13.5	-31.6	-5.63	5.09	7.01
C=C[C@H]1[C@H](O[C@@H]2O[C@H](CO[C@@H]3OC[C@](O)(CO)[C@H]3O)[C@@H](O)[C@H](O)[C@H]2O)OC=C2C(=O)OCC[C@H]21	-2	-15.2	6.36	3.93	6.07
CCOc1cc2c(cn1)NCCN(Cc1ccncc1Cl)C2	4.74	-3.78	-9.66	-7.88	-9.34
CC1(C(=O)NCc2ccc(Cl)cc2)Cn2c(ccc2-c2ccco2)C(=O)N1Cc1ccc2c(c1)OCO2 (configuration not stated)	0	-4.27	-2.98	-2.65	1.17
CCOc1ccc(CCN2C(=O)c3cc4ccccc4n3CC2(C)C(=O)NCCCOC(C)C)cc1 (configuration not stated)	2.34	2.29	2.94	5.29	7.51
OC[C@@H]1CN(Cc2ccc(F)cc2)C[C@H]1c1nc(-c2ccncc2)no1	-6.35	-9.33	-2.13	-5.42	-3.05
Cc1cc(-c2ccc(/C=C3\SC(=Nc4ccc(Cl)c(C(=O)O)c4)NC3=O)o2)c([N+](=O)[O-])cc1C	-30.2	-42.5	-38.2		
Cc1nn(CC(=O)NC2CCCCC2)c(=O)c2nc(C(C)C)sc12	-10.7	-2.98	-2.89	-5.21	-0.673
CC(C)C1CCC(C(=O)N[C@H](Cc2ccccc2)C(=O)O)CC1 (some centres not stated)	-5.73	-28.9	-1.98		
COc1ccc(CCC(=O)N2CCOCCNC(=O)CC2)cc1	-4.75	-7.72	-6.27	-5.11	-0.564
CCCn1c(=O)c2sccc2n2c(CCC(=O)NCc3ccncc3)nnc12	0	11.4	3.69	3.15	10.1
CC(=O)Nc1c2n(c3ccc(F)cc13)CC(C)(C(=O)NC1CCCC1)N(CCc1ccccc1)C2=O (configuration not stated)	0	7.83	-1.86	6.32	1.49
CC(C)=CC/C=C(/C)[C@H]1CC[C@]2(C)[C@@H]1[C@H](O)CC1[C@@]3(C)CC[C@H](O)C(C)(C)[C@@H]3[C@@H](O[C@@H]3O[C@H](CO)[C@@H](O)[C@H](O)[C@H]3O[C@@H]3O[C@@H](C)[C@H](O)[C@@H](O)[C@H]3O)C[C@]12C (some centres not stated)	19.8	5.6	9.7	0	10.2
O=C(c1cc(-n2cccn2)ccc1Cl)N1CCn2nc(CO)cc2C1	-3.54	-7.13	-16.5	-3.94	0.899
CCN(CC)CCCN1C(=O)c2ccc(-c3ccco3)n2CC1(C)C(=O)NC1CCCCCCC1 (configuration not stated)	-1.06	-14	-2.23	-10.2	-5.7
